# Source: PubChem BioAssay (NCATS)
# The inconclusive results got no clear call from the source; some entries with a clear call stand among them for comparison. For some of these results: Potencies beside an inconclusive call are fits to weak or partial responses and may not hold up. Active and inactive are the calls of the source. Calls come from the whole dose curve; as a rule, active = well fitted cell-killing curve with a large enough effect; inconclusive = small, poorly fitted or top-dose-only effect, or effect the other way; inactive = flat fitted curve, though single readings scatter.
# Columns and labels:
# Test in all cases: Primary qHTS to identify gynecologic anti-cancer compounds using libraries of approved drugs and bioactive compounds (AID 1345084); note: nearly all actives have a fitted effect of over 55% in size
# Conditions in all cases: Gynecologic cancer cell panel viability, ATPlite luminescence, 48 h; series mostly up to 57.5 µM
# Tov-21-G = system: Tov-21-G
# Outline: (§1)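 48 h compound exposure at 37 C, 5% CO2; five-point qHTS. ATPlite luminescence readout of cell ATP.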
# SKOV3 = system: SKOV3
# Outline: as §1
# Tov112D = system: Tov112D
# Outline: as §1
# Potency is the fitted concentration of half-maximal effect; tags give direction and shape of the fitted curve.
Compound,Potency (Tov-21-G),Potency (SKOV3),Potency (Tov112D)
CN1C[C@@H](NS(=O)(=O)N(C)C)C[C@@H]2c3cccc4c3c(cn4C)C[C@H]21,inactive,–,–
CNC(C)Cc1ccc2c(c1)OCO2 (centres undefined),inactive,–,–
CC[C@H](O)C(C[C@H](C)N(C)C)(c1ccccc1)c1ccccc1,–,"inconclusive: 44.7 µM [cytotoxic, single point]","inconclusive: 70.8 µM [cytotoxic, single point]"
CC12CCC3C(CCC4(O)CC(O)CCC34C=O)C1(O)CCC2C1=CC(=O)OC1 (centres undefined),–,active: 1.58 µM,active: 0.355 µM
COc1ccc2c3c([nH]c2c1)C(C=C(C)C)N1C(=O)C2CCCN2C(=O)C1C3 (centres undefined),–,"inconclusive: 4.47 µM [rising, single point]",inactive
C[C@H]1O[C@@H](O[C@H]2C[C@@H](O)[C@]3(CO)C4C(CC[C@]3(O)C2)[C@@]2(O)CC[C@H](C3=CC(=O)OC3)[C@@]2(C)C[C@H]4O)[C@@H](O)[C@@H](O)[C@H]1O (some centres undefined),–,active: 0.224 µM,active: 0.112 µM
CC(C)=CCC[C@]1(C)C=Cc2c(O)c3c(c(CC=C(C)C)c2O1)O[C@]12C(=C[C@@H]4CC1C(C)(C)O[C@@]2(C/C=C(/C)C(=O)O)C4=O)C3=O,–,"inconclusive: 7.08 µM [cytotoxic, full curve, poor fit]",active: 5.01 µM
O=[N+]([O-])c1cc([N+](=O)[O-])c2ccccc2c1,–,"inconclusive: 70.8 µM [cytotoxic, single point]",inactive
COC1CC(O[C@H]2CC[C@@]3(C)C(CCC4C3CC[C@]3(C)C(C5=CC(=O)OC5)CCC43O)C2)OC(C)C1OC1OC(COC2OC(CO)C(O)C(O)C2O)C(O)C(O)C1O (some centres undefined),–,active: 3.16 µM,active: 0.794 µM
NC(=O)[C@@H](CC1CC1)[C@@H](CCC(F)(F)F)C(=O)N[C@H]1N=C(c2ccccc2)c2cccc(F)c2NC1=O,inactive,–,–
CC[N+]1(CC)CCC(OC(=O)C(O)(c2ccccc2)c2ccccc2)C1 (centres undefined),–,inactive,inactive
C[C@H]1C(=O)O[C@H]2[C@H](O)[C@]34C5OC(=O)[C@]3(O[C@@H]3OC(=O)[C@H](O)C34[C@H](C(C)(C)C)[C@H]5O)C12O (some centres undefined),inactive,–,–
CC1NCCOC1c1ccccc1 (centres undefined),–,inactive,inactive
ClCc1cccc(Cl)c1,inactive,–,–
NC1(c2ccccc2)CCCCC1,–,"inconclusive: 0.631 µM [cytotoxic, full curve, poor fit]","inconclusive: 44.7 µM [cytotoxic, single point]"
CCOP(=O)(OCC)Oc1ccc2c(C)cc(=O)oc2c1,inactive,–,–
O=P1(NCCCl)OCCCN1CCCl (centres undefined),inactive,–,–
CCCCN1[C@@H]2CC[C@H]1CC(OC(c1ccc(F)cc1)c1ccc(F)cc1)C2 (some centres undefined),–,"inconclusive: 28.2 µM [cytotoxic, single point]","inconclusive: 25.1 µM [cytotoxic, partial curve, poor fit]"
Oc1ccc(Cl)cc1Cc1ccccc1,–,"inconclusive: 89.1 µM [cytotoxic, single point] and inactive","inconclusive: 39.8 µM [cytotoxic, single point]"
Oc1ccc2c3c1O[C@H]1[C@@H](O)C=C[C@H]4[C@@H](C2)NCC[C@@]341,inactive,–,–
C[C@@H](CN1CCC2(CC1)C(=O)NCN2c1cccc(F)c1)NC(=O)c1ccc(Br)cc1,–,"inconclusive: 1 µM [rising, full curve, poor fit]","inconclusive: 31.6 µM [cytotoxic, partial curve, poor fit]"
